# Results from the supplement of paper PMC8728848.
# Some of the results follow.
# How the values were obtained:
# Assay in all cases: glycan array binding signal (z-score within array); higher = stronger binding
# Settings in all cases: glycan notation: IUPAC condensed, linker removed
# [1] = biological target: Fuc(a1-2)[GalNAc(a1-3)]Gal(b1-4)GlcNAc(b1-3)Gal(b1-4)GlcNAc
# Summary of the method: (§1)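 Columns mapping to the same glycan were averaged after glycan names were converted to IUPAC-condensed notation. The data come from 3228 arrays in the Consortium for Functional Glycomics database, limited to those with an available protein sequence. Binding is reported as a within-array Z-score averaged across arrays of one protein sequence and across linkers.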
# [2] = biological target: Fuc(a1-2)[GalNAc(a1-3)]Gal(b1-4)GlcNAc(b1-3)Gal(b1-4)GlcNAc(b1-3)Gal(b1-4)GlcNAc
# Summary of the method: as §1
# [3] = biological target: Fuc(a1-2)[GalNAc(a1-3)]Gal(b1-4)GlcNAc(b1-3)GalNAc
# Summary of the method: as §1
# [4] = biological target: Fuc(a1-2)[GalNAc(a1-3)]Gal(b1-4)[Fuc(a1-3)]GlcNAc
# Summary of the method: as §1
# [5] = biological target: Fuc(a1-2)[GalNAc(a1-3)]Gal(b1-4)[Fuc(a1-3)]GlcNAc(b1-3)GalNAc
# Summary of the method: as §1
# [6] = biological target: Fuc(a1-2)[GalNAc(a1-4)]Gal(b1-4)GlcNAc
# Summary of the method: as §1
# [7] = biological target: Fuc(a1-2)[GalNAc(b1-3)]Gal
# Summary of the method: as §1
# Fuc(a1-3)GlcNAc = biological target: Fuc(a1-3)GlcNAc
# Summary of the method: as §1
# [8] = biological target: Fuc(a1-3)[Gal(b1-4)]Glc6S
# Summary of the method: as §1
# [9] = biological target: Fuc(a1-3)[Gal(b1-4)]GlcNAc
# Summary of the method: as §1
# [10] = biological target: Fuc(a1-3)[Gal(b1-4)]GlcNAc(b1-2)Man
# Summary of the method: as §1
# [11] = biological target: Fuc(a1-3)[Gal(b1-4)]GlcNAc(b1-2)Man(a1-3)[Fuc(a1-3)[Gal(b1-4)]GlcNAc(b1-2)Man(a1-6)]Man(b1-4)GlcNAc(b1-4)GlcNAc
# Summary of the method: as §1
# [12] = biological target: Fuc(a1-3)[Gal(b1-4)]GlcNAc(b1-2)Man(a1-3)[Fuc(a1-3)[Gal(b1-4)]GlcNAc(b1-2)Man(a1-6)]Man(b1-4)GlcNAc(b1-4)[Fuc(a1-6)]GlcNAc
# Summary of the method: as §1
# [13] = biological target: Fuc(a1-3)[Gal(b1-4)]GlcNAc(b1-3)Gal(b1-3)[Fuc(a1-4)]GlcNAc
# Summary of the method: as §1
# [14] = biological target: Fuc(a1-3)[Gal(b1-4)]GlcNAc(b1-3)GalNAc
# Summary of the method: as §1
# [15] = biological target: Fuc(a1-3)[Gal(b1-4)]GlcNAc(b1-4)Gal(b1-4)[Fuc(a1-3)]GlcNAc
# Summary of the method: as §1
# [16] = biological target: Fuc(a1-3)[Gal(b1-4)]GlcNAc(b1-4)Gal(b1-4)[Fuc(a1-3)]GlcNAc(b1-4)Gal(b1-4)[Fuc(a1-3)]GlcNAc
# Summary of the method: as §1
# [17] = biological target: Fuc(a1-3)[Gal(b1-4)]GlcNAc(b1-6)GalNAc
# Summary of the method: as §1
# [18] = biological target: Fuc(a1-3)[Gal(b1-4)]GlcNAc(b1-6)[Gal(b1-3)GlcNAc(b1-3)]Gal(b1-4)Glc
# Summary of the method: as §1
# [19] = biological target: Fuc(a1-3)[Gal(b1-4)]GlcNAc(b1-6)[Neu5Ac(a2-3)Gal(b1-3)]GalNAc
# Summary of the method: as §1
# [20] = biological target: Fuc(a1-3)[Gal(b1-4)]GlcNAc6S
# Summary of the method: as §1
# [21] = biological target: Fuc(a1-3)[Gal3S(b1-4)]GlcNAc
# Summary of the method: as §1
# [22] = biological target: Fuc(a1-3)[Gal3S(b1-4)]GlcNAc6S
# Summary of the method: as §1
# [23] = biological target: Fuc(a1-3)[GalNAc(b1-4)]GlcNAc
# Summary of the method: as §1
# [24] = biological target: Fuc(a1-3)[GalNAc(b1-4)]GlcNAc6S
# Summary of the method: as §1
# [25] = biological target: Fuc(a1-3)[GalNAc3S(b1-4)]GlcNAc
# Summary of the method: as §1
# Fuc(a1-4)GlcNAc = biological target: Fuc(a1-4)GlcNAc
# Summary of the method: as §1
# Fuc(b1-3)GlcNAc = biological target: Fuc(b1-3)GlcNAc
# Summary of the method: as §1
# Gal(a1-2)Gal = biological target: Gal(a1-2)Gal
# Summary of the method: as §1
# Gal(a1-3)Gal = biological target: Gal(a1-3)Gal
# Summary of the method: as §1
# Gal(a1-3)Gal(b1-3)GlcNAc = biological target: Gal(a1-3)Gal(b1-3)GlcNAc
# Summary of the method: as §1
# [26] = biological target: Gal(a1-3)Gal(b1-3)GlcNAc(b1-2)Man(a1-3)[Gal(a1-3)Gal(b1-3)GlcNAc(b1-2)Man(a1-6)]Man(b1-4)GlcNAc(b1-4)GlcNAc
# Summary of the method: as §1
# [27] = biological target: Gal(a1-3)Gal(b1-3)GlcNAc(b1-3)GalNAc
# Summary of the method: as §1
# [28] = biological target: Gal(a1-3)Gal(b1-3)GlcNAc(b1-6)GalNAc
# Summary of the method: as §1
# [29] = biological target: Gal(a1-3)Gal(b1-3)[Fuc(a1-4)]GlcNAc(b1-2)Man(a1-3)[Gal(a1-3)Gal(b1-3)[Fuc(a1-4)]GlcNAc(b1-2)Man(a1-6)]Man(b1-4)GlcNAc(b1-4)GlcNAc
# Summary of the method: as §1
# Gal(a1-3)Gal(b1-4)Glc = biological target: Gal(a1-3)Gal(b1-4)Glc
# Summary of the method: as §1
# Gal(a1-3)Gal(b1-4)GlcNAc = biological target: Gal(a1-3)Gal(b1-4)GlcNAc
# Summary of the method: as §1
binder,measurement,setting,value
SalT (Orysata sativa) (protein) MTLVKIGLWGGNGGSAQDISVPPKKLLGVTIYSSDAIRSIAFNYIGVDGQEYAIGPWGGGEGTSTEIKLGSSEHIKEISGTHGPVYDLADIVTYLKIVTSANNTYEAGVPNGKEFSIPLQDSGHVVGFFGRSGTLIDAIGIYVHPILEQKLISEEDLNSAVDHHHHHH,glycan array binding signal (z-score),[1],-0.307
same,glycan array binding signal (z-score),[2],-0.307
same,glycan array binding signal (z-score),[3],-0.305
same,glycan array binding signal (z-score),[4],-0.308
same,glycan array binding signal (z-score),[5],-0.303
same,glycan array binding signal (z-score),[6],-0.308
same,glycan array binding signal (z-score),[7],-0.31
same,glycan array binding signal (z-score),Fuc(a1-3)GlcNAc,-0.306
same,glycan array binding signal (z-score),[8],-0.303
same,glycan array binding signal (z-score),[9],-0.308
same,glycan array binding signal (z-score),[10],-0.291
same,glycan array binding signal (z-score),[11],1.34
same,glycan array binding signal (z-score),[12],-0.296
same,glycan array binding signal (z-score),[13],-0.309
same,glycan array binding signal (z-score),[14],-0.301
same,glycan array binding signal (z-score),[15],-0.306
same,glycan array binding signal (z-score),[16],-0.308
same,glycan array binding signal (z-score),[17],-0.302
same,glycan array binding signal (z-score),[18],-0.31
same,glycan array binding signal (z-score),[19],-0.306
same,glycan array binding signal (z-score),[20],-0.307
same,glycan array binding signal (z-score),[21],-0.309
same,glycan array binding signal (z-score),[22],-0.303
same,glycan array binding signal (z-score),[23],-0.306
same,glycan array binding signal (z-score),[24],-0.305
same,glycan array binding signal (z-score),[25],-0.308
same,glycan array binding signal (z-score),Fuc(a1-4)GlcNAc,-0.308
same,glycan array binding signal (z-score),Fuc(b1-3)GlcNAc,-0.312
same,glycan array binding signal (z-score),Gal(a1-2)Gal,-0.308
same,glycan array binding signal (z-score),Gal(a1-3)Gal,-0.309
same,glycan array binding signal (z-score),Gal(a1-3)Gal(b1-3)GlcNAc,-0.305
same,glycan array binding signal (z-score),[26],0.177
same,glycan array binding signal (z-score),[27],-0.307
same,glycan array binding signal (z-score),[28],-0.311
same,glycan array binding signal (z-score),[29],0.535
same,glycan array binding signal (z-score),Gal(a1-3)Gal(b1-4)Glc,-0.309
same,glycan array binding signal (z-score),Gal(a1-3)Gal(b1-4)GlcNAc,-0.311
